Data published in PMC4336329 (PLoS ONE, 2015).
Screen size: about 310,000 compounds; about 2,200 (0.71%) showed an effect of 50% or more. The effect is printed as a negative number. Some of the results follow.

What follows are compounds tested against human ether-à-go-go-related gene (hERG) potassium channel (human, UniProt Q12809) (assay: primary screen, population patch clamp on CHO cells stably expressing hERG).
Chain of human ether-à-go-go-related gene (hERG) potassium channel (Q12809 whole entry, looked up): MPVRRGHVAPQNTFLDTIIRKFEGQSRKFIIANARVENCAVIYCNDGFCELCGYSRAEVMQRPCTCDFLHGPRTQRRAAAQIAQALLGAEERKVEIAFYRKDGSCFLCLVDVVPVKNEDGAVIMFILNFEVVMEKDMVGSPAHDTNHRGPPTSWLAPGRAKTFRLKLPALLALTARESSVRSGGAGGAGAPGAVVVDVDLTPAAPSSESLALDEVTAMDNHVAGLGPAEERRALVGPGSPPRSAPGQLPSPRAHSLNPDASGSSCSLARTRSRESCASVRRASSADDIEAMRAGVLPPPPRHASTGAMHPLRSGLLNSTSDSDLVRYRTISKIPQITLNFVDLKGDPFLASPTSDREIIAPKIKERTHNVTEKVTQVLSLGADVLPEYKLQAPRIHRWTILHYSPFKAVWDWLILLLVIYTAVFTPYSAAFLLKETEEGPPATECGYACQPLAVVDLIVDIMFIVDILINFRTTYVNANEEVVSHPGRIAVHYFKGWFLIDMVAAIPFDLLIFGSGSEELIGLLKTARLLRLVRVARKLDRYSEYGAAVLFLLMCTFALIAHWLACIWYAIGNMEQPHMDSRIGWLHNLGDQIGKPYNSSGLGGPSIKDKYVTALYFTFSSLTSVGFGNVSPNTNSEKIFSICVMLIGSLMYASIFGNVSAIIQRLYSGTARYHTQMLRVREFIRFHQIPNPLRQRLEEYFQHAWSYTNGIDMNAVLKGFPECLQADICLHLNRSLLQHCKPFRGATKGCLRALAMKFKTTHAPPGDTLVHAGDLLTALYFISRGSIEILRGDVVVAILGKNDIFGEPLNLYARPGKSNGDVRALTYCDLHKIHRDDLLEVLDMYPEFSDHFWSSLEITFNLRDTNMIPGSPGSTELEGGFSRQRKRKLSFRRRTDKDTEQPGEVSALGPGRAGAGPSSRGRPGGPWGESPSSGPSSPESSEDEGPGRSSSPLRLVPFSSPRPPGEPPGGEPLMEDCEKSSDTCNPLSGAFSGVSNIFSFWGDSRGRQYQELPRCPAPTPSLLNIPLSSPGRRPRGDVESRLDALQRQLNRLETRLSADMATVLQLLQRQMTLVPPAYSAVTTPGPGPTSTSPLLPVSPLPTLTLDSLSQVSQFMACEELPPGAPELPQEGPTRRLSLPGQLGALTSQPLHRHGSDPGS

Structure (SMILES)	hERG current change (%, negative = inhibition) at 1uM [%]
O=C(OCCNc1ncc(C(F)(F)F)cc1Cl)c1ccc(S(=O)(=O)N2CCOCC2)cc1	12.5
Cn1c(=O)n(C)c2cc(NC(=O)c3cccc([N+](=O)[O-])c3)c(Br)cc21	8.08
Cc1c(NC(=O)c2cc3c(s2)CCCC3)c(=O)n(-c2ccccc2)n1C	17.6
COc1cccc(NC(=O)CN(C)C(=O)CN2C(=O)NC(C)(c3ccc4ccccc4c3)C2=O)c1 (stereo not shown)	5.34
Cn1nnc2cc(NC(=O)N3CC4(C)CC3CC(C)(C)C4)ccc21 (stereo not shown)	14.7
Cn1cc(CN2CCc3c([nH]c4ccccc34)C2C2CCCCC2)cn1 (stereo not shown)	15.1
O=c1[nH]c(=O)n(-c2cccc3ccccc23)c(O)c1C=NCCCn1ccnc1	10.1
Cc1cc(OCC(=O)OCC(=O)N2CC(C)CC(C)C2)ccc1Cl (stereo not shown)	11
OCCCNc1c2c(nc3cc(-c4ccc(Cl)cc4)nn13)CCC2	1.48
CCCCN1C(=O)c2ccc(C(=O)NCc3ccco3)cc2C1=O	-9.52
CC(=O)CSc1nnc(-c2ccc3c(c2)OCO3)o1	10.1
Oc1cccc(Oc2ncc(C(F)(F)F)cc2Cl)c1	6.62
COc1ccc(-c2noc(CCc3ccccc3)n2)cc1	4.46
CCCC1=Nc2cc(C(=O)NCc3ccco3)ccc2Sc2ccccc21	11.9
Cc1cc(C)n(C(=O)CCN2C(=O)c3ccccc3C2=O)n1	7.34
CCOC(=O)c1[nH]cnc1C(=O)N1CCN(C(=O)OC(C)(C)C)CC1	22.6
COc1ccc(N2C(=O)CC(S/C(N)=N/N=C(\C)c3cccs3)C2=O)cc1 (stereo not shown)	-7.55
C=CCOc1ccc(CNCc2cccnc2)cc1OCC.Cl	11.8
CCCn1c(CCC(=O)O)ccc1-c1ccc(OC)cc1	13.1
CCN(CC)C(=O)CSc1ccc(C(F)(F)F)cc1[N+](=O)[O-]	13.8
CC(NC(=O)C(c1ccccc1)c1ccccc1)c1ccccc1 (stereo not shown)	13.6
COC(=O)c1ccc(-n2nnnc2SCC(=O)Nc2cc(OC)ccc2OC)cc1	5.1

Structure (SMILES)	hERG current change (%, negative = inhibition) at 1uM [%]
Cc1cc(C)n(S(=O)(=O)c2ccc(C)c(C)c2C)n1	10.1
CN(CC(=O)Nc1ccccc1Br)C(=O)c1cccc(S(=O)(=O)NCc2ccccc2)c1	10.8
CN(C)c1ccc(CNc2ncn[nH]2)cc1	14.4
CCN=C(NCC)SC1CC(=O)N(c2ccccc2)C1=O (stereo not shown)	-3.74
CCOc1ccccc1N(C)C(=O)Cn1ncc2c([nH]c3ccccc32)c1=O	10.3
COc1ccc(CCn2nnnc2C(C(C)C)N2CCN(c3ncccn3)CC2)cc1OC (stereo not shown)	2.11
NS(=O)(=O)c1ccc(NC(=O)COC(=O)Cc2ccc(Cl)cc2)cc1	7.03
CCCc1cc(=O)oc2c3c(cc(OCC(=O)N[C@@H](C)C(=O)O)c12)OC(C)(C)CC3	20.3
CCOC(=O)N1CCC(NCc2c(C(=O)N(C)Cc3ccccc3)nc3ccccn23)CC1	-8.36
COc1nc(NC23CC4CC(CC(C4)C2)C3)nc(OC)n1	2.91
N#Cc1c(-c2ccccc2)cc(-c2ccc(O)cc2)nc1N	19.5
CCOC(=O)CCc1c(C)c2ccc(OCC(=O)N(CC)CC)c(C)c2oc1=O	15.8
Cc1ccn2cc(C(=O)Nc3ccc4c(c3)OCCO4)nc2c1	-4.3
COc1ccc(CNC(=O)N2CCN(c3cccc(Cl)c3)CC2)cc1OC	5.05
COc1ccc(C(C)=O)cc1COC(=O)CCNS(=O)(=O)c1ccc(C(C)=O)cc1	-4.98
O=C(COC(=O)c1ccccc1Nc1ccccc1)NCc1ccccc1Cl	5.45
COc1ccc(N(CC(=O)NCc2ccccc2OC)S(=O)(=O)c2ccc(C)cc2)cc1Cl	5.56
N#Cc1c(NC(=O)CSc2nc(N)cc(=O)[nH]2)sc2c1CCCCCC2	1.9
C=CCN1C(=O)C(O)(CC(=O)c2ccccc2)c2ccccc21 (stereo not shown)	9.28
CCOc1cccc2c1OC1(C)CC2NC(=O)N1c1cccc(C(=O)NCc2ccccn2)c1 (stereo not shown)	16.7
CCC(CC)C(=O)Nc1cccc(C(=O)N2CCCC2)c1	12.6
Cc1ccccc1N=Nc1c(C)[nH]n(C(N)=S)c1=O	14.3

Structure (SMILES)	hERG current change (%, negative = inhibition) at 1uM [%]
C=CCn1c(SCc2ccccc2)nc2scc(-c3ccc(C)o3)c2c1=O	10
CCN(C(=O)CSc1nc2ccccc2n1CC)C1CCS(=O)(=O)C1 (stereo not shown)	4.73
Nc1c(Cl)cc(-c2csc(NC(CO)c3nc4ccccc4n3CCOCCO)n2)cc1Cl (stereo not shown)	10.6
CC1Cc2cc(S(=O)(=O)N3CCN(c4ccc(Cl)cc4)CC3)ccc2N1C(=O)C1CC1 (stereo not shown)	21.1
CCOC(=O)Cc1sc(N)nc1C	17.3
Cc1nc(SCCOc2ccc(F)cc2)c2ccccc2n1	9.34
O=C(Cn1cc([N+](=O)[O-])cn1)NC1CCCCCC1	4.56
CCOC(=O)c1ccc(NC(=O)c2cc3c(s2)CCC3)cc1	8.23
CCn1c(SCC(=O)Nc2ccc3c(c2)OCCO3)nnc1-c1c[nH]c2ccccc12	10.6
O=C(N/N=C/c1ccccc1)c1cccc2ccccc12	10.4
CN(Cc1ccccc1)c1ccc2nnc(-c3ccccc3)n2n1	4.4
CN1CCN(C(c2ccc(C(F)(F)F)cc2)c2cc(Cl)c3cccnc3c2O)CC1 (stereo not shown)	14.6
Cc1ccc(C)c(S(=O)(=O)NCc2ccc(C(=O)N3CC(C)OC(C)C3)cc2)c1 (stereo not shown)	8.81
CC1=CC(=C(C#N)C#N)C=C(C)N1CCN1CCN(C(=O)Nc2cccc(Cl)c2)CC1	5.35
Cc1ccc2nc(NC(=O)C3CCN(S(=O)(=O)c4cccc5nsnc45)CC3)sc2c1	14.2
COc1ccccc1N1CCN(C(=O)/C=C/c2ccco2)CC1	13.3
Cc1[nH]nc2c1C(c1ccco1)C(C#N)=C(N)O2 (stereo not shown)	7.49
O=c1c2c3c(sc2ncn1/N=C/c1ccco1)CCCC3	-5.22
CSc1nsc(SCC(=O)Nc2ccc(Br)cn2)n1	8.32
O=C(Nc1ccccc1)Nc1sccc1-c1nc2ccccc2s1	1.3
CC(C)CN(C(=O)COC(=O)Cc1cccc2ccccc12)c1c(N)n(Cc2ccccc2)c(=O)[nH]c1=O	5.78
O=C(Nc1ccccc1Cl)N1CCCN(c2nc(-c3ccccc3)ns2)CC1	5.92

Structure (SMILES)	hERG current change (%, negative = inhibition) at 1uM [%]
Cc1onc(-c2ccccc2)c1C(=O)Nc1nnc(C(C)(C)C)s1	12.9
O=C(C1CC1)N1CCN=C1SCc1ccccc1	9.5
O=C(Nc1ccccc1)N1CCN(c2ccccn2)CC1	-1.51
NC(=O)c1c(NC(=O)CN2C(=O)NC(Cc3ccccc3)C2=O)sc2c1CCC2 (stereo not shown)	8.38
Cc1cc(N/N=C/c2ccc(O)cc2)nc(NS(=O)(=O)c2ccccc2)n1	14.6
Cn1c(CC2Sc3ccccc3NC2=O)nnc1SCC(=O)c1ccc(Cl)cc1 (stereo not shown)	8.3
Cc1cc(NC(=O)c2oc3ccccc3c2C)ccc1-n1cnnn1	8.11
COc1ccc(CC(=O)n2[nH]c(=O)c3ccccc3c2=O)cc1OC	12.3
CN(c1ccccc1)S(=O)(=O)c1ccc(C(=O)Nc2nnc(C3=COCCO3)o2)cc1	-3.78
O=C(N/N=C/c1c(O)n(Cc2ccc(F)cc2)c(=O)[nH]c1=O)c1ccccc1O	12.2
O=C1CCC(=O)N1c1ccc(NCCc2cccc(F)c2)c([N+](=O)[O-])c1	8.55
O=c1[nH]c(S)c(/C=C2\C=Nc3ccccc32)s1	16.9
CCOC(=O)N1CCN(S(=O)(=O)c2ccc(C(=O)Nc3nc4ccc(F)cc4s3)cc2)CC1	-3.52
COC(=O)N/N=C\c1cc(Br)ccc1OCc1ccccc1	14.8
COc1ccc(-c2ccc(NS(=O)(=O)c3cc([N+](=O)[O-])ccc3C)cc2)nn1	12.7
Cc1cc(=O)n2[nH]c(C)cc2n1	16.6
CN1CCN(c2nc3c(c(=O)[nH]c(=O)n3C)n2CC(N)=O)CC1	16.5
Cc1ccc(-c2cc(C(=O)N3CCN(C(=O)c4ccco4)CC3)no2)cc1	-4.32
Cn1c(=O)c2[nH]c(N/N=C(/C#N)C(N)=O)nc2n(C)c1=O	7.16
CCOC(=O)C1CCN(C(=O)C(C)Oc2ccc(C(=O)c3ccccc3)cc2)CC1 (stereo not shown)	0.352
O=C(NO)c1cc(OCC(F)(F)F)ccc1OCC(F)(F)F	-9.5
O=C(CC1SC(=O)N(c2ccccc2)C1=O)Nc1cccc2ccccc12 (stereo not shown)	15.6
